From ChEMBL document CHEMBL4888484, “Replenishing the malaria drug discovery pipeline: Screening and hit evaluation of the MMV Hit Generation Library 1 (HGL1) against asexual blood stage Plasmodium falciparum ,using a nano luciferase reporter read-out” (2022)
The whole screen tested about 150,000 compounds, of which about 540 (0.36%) showed an effect of 50% or more. Some of the results follow.

system: Plasmodium falciparum; assay: Primary screen in NF54 nanoGlo assay, in single point, at 2uM, 72h; a lower Z score goes with more inhibition; format: functional, Erythrocyte; conditions: timepoint 72 hour

Question: Which results are given for `Cc1ccc(-c2ccc(C)nn2)c(-n2cccn2)c1`?
Answer: % Inhibition: -10%; Z score: 1.08

Question: Which “% Inhibition” value does the source give for `CCn1c([C@H]2CCCN(C(=O)c3ccc4c(=O)n(C)cnc4c3)C2)n[nH]c1=O` here?
Answer: -13%

Question: What about the Z score of the same compound?
Answer: 1.63

Question: `N#Cc1cc2cc(Cl)cnc2nc1N1CCCCC1` was tested. Which “% Inhibition” value did it give?
Answer: 39%

Question: What about the Z score of the same compound?
Answer: -4.97

Question: Which “% Inhibition” value does the source give for `CNc1nc(C(=O)NCc2cnn(C(C)C)c2)cs1` here?
Answer: -6%

Question: And the Z score?
Answer: 0.67

Question: With `CCCc1nnc(N2CCC(OCCN(C)C)CC2)o1` as the compound, how does the “% Inhibition” value read?
Answer: -4%

Question: And the Z score?
Answer: 0.81

Question: For `Cc1cc([C@@H](C)C(=O)N2CCN(CCO)CC2)c(C)o1`, which “% Inhibition” value is on record?
Answer: -8%

Question: And the Z score?
Answer: 1.05

Question: With `O=S(=O)(Nc1ccccn1)N1CCCC1` as the compound, how does the “% Inhibition” value read?
Answer: -5%

Question: What about the Z score of the same compound?
Answer: 0.82

Question: For `CCc1csc(CCNC(=O)c2c[nH]nc2-c2ccccc2)n1`, which “% Inhibition” value is on record?
Answer: -13%

Question: What about the Z score of the same compound?
Answer: 1.27

Question: How did the “% Inhibition” value turn out when `CC(C)c1noc(CN2CCC[C@H]2c2ccsc2)n1` was run?
Answer: 9%

Question: What about the Z score of the same compound?
Answer: -1.34

Question: With `COc1cncc(C(NC(=O)CCN2Cc3ccccc3C2)[C@H]2C[C@@H](O)C2)c1` (stereo partly drawn) as the compound, how does the “% Inhibition” value read?
Answer: -7%

Question: What about the Z score of the same compound?
Answer: 1.36

Question: What does the source list for `COc1ccc(CNC(=O)c2ccc(-n3nc4c(c3-c3ccccc3F)CCCC4)cc2)cc1`?
Answer: % Inhibition: 0%; Z score: -0.04

Question: Which “% Inhibition” value does the source give for `O=C(NC[C@H]1CCCO1)C1CCN(Cn2ncc3ccccc3c2=O)CC1` here?
Answer: 0%

Question: And the Z score?
Answer: 0.04

Question: What does the source list for `Cc1nc(C(=O)N(Cc2ccc(F)cc2)CC2CC2)ccc1C(=O)O`?
Answer: % Inhibition: 3%; Z score: -0.47

Question: `CC(C)(NC[C@]1(O)CCCN(Cc2cccc(F)c2F)C1=O)c1ccccc1` was tested. Which “% Inhibition” value did it give?
Answer: -10%

Question: And the Z score?
Answer: 1.22

Question: With `COCCCNc1nc2c(cc1C#N)CCC2` as the compound, how does the “% Inhibition” value read?
Answer: -4%

Question: What about the Z score of the same compound?
Answer: 0.76

Question: How did the “% Inhibition” value turn out when `Cc1sc(NC(=O)c2ccc3c(c2)OCCO3)c(C(=O)NCc2cccnc2)c1C` was run?
Answer: -26%

Question: And the Z score?
Answer: 2.95

Question: Which results are given for `CCCc1nnsc1C(=O)NCC#CCN(C)Cc1ccccc1`?
Answer: % Inhibition: 2%; Z score: -0.28

Question: What does the source list for `COCCOCc1nc([C@@H]2CCCCN2C(=O)Nc2ccccc2F)no1`?
Answer: % Inhibition: 1%; Z score: -0.2

Question: Which results are given for `CC[C@H](OC)C(=O)Nc1nn(Cc2ccccc2)c2cccc(N3CCOCC3)c12`?
Answer: % Inhibition: 12%; Z score: -1.54

Question: For `O=C(NCc1cc(-c2cccc(F)c2)no1)c1cnc[nH]1`, which “% Inhibition” value is on record?
Answer: -8%

Question: And the Z score?
Answer: 1.19

Question: Which results are given for `C=C1C2CCC3(C4C[C@@H]5[C@@]6(C)CCC[C@]5(C3[C@H]2O)[C@@H]4N(CC)C6)[C@@H]1O` (stereo partly drawn)?
Answer: % Inhibition: 31%; Z score: -3.48

Question: Which results are given for `Cn1cccc(C(=O)N2CCCC[C@H]2c2cc(C(N)=O)[nH]n2)c1=O`?
Answer: % Inhibition: 13%; Z score: -1.73

Question: What does the source list for `Cc1cccc2c1ncn1nc(-c3ccoc3)nc21`?
Answer: % Inhibition: 0%; Z score: -0.06

Question: For `Fc1ccc(Br)cc1Cn1nnc(C2CCOCC2)n1`, which “% Inhibition” value is on record?
Answer: -2%

Question: And the Z score?
Answer: 0.36
